Key:
[1] = target: T1, human CD40 on cells (Raji cells; HEK-Blue CD40L cells; human dendritic cells) (human, UniProt P25942 21-277); test: FACS on Raji cells
T1 construct: whole, on cells; One entry for untagged full-length human CD40 on cells; also called Raji cell surface human CD40; human cell surface CD40 antigen
Experimental: A FACS assay was used to measure the binding properties of anti-CD40 antibodies on cells. The assay comprises the following steps: Raji single cells were obtained and plated. The test antibodies were added at 100 μL/well. The highest concentration point was 100 nM. A 5-fold dilution was performed, yielding 8 concentration points in total. The plate was incubated at 4° C. for 1 h. Anti-hIgG Alexa Fluor-647 was added as a secondary antibody in the ratio of 1:500. The plate was incubated at 4° C. for 30 min. A FACS assay was performed. A CD40 agonist was used as a positive control.

[2] = target: T1, human CD40 on cells (Raji cells; …); test: cell-based or functional assay
[3] = target: T1, human CD40 on cells (Raji cells; …); test: cell-based or functional assay; remark: listed apart in the source
[4] = target: T2, human CD40 with C-terminal Flag tag on HEK293 cells (human, UniProt P25942 21-277); test: FACS, HEK293 cells transiently expressing human CD40
T2 construct: whole, on cells; also called HEK293 cells highly expressing CD40; cell strain highly expressing human CD40
Experimental: The ability of the humanized antibodies to bind to cells highly expressing the human antigen protein CD40 was measured by FACS. HEK293 cells were transiently transfected with CD40 plasmids (CD40 cDNA ORF Clone, Human, C-[…] (Flag®) Tag; Sino Biological; HG10774-CF), yielding HEK293 cells highly expressing CD40. The resulting cells were resuspended in the flow cytometry staining buffer ([…]), and the test antibodies that had been serially diluted to different concentrations were added. After 1 h of incubation on ice, the cells were washed with PBS and centrifuged at 400 g for 5 min. A goat anti-human Fc antibody labeled with the fluorescent group Alexa Fluor 647 was added as a secondary antibody, and the cells were stained in an ice bath for 1 h. After two washes with PBS, the fluorescent signals on the cell surface were detected by FACS. The humanized antibodies of the present disclosure all have relatively high affinities for the cell strain highly expressing CD40.

| EC50 [1] | Maximum response (percentage relative to 200 nM 9E5-SELFNS), HEK-Blue CD40L reporter cells [2] | agonist activity EC50, HEK-Blue CD40L reporter cells (SEAP) [2] | FcγRIIb-mediated activation of HEK-Blue CD40L cells, Emax (relative fluorescence intensity) [3] | EC50 [4] | Emax MFI [4] | FcγRIIb-mediated activation of HEK-Blue CD40L cells, EC50 [3] | Binder |
| --- | --- | --- | --- | --- | --- | --- | --- |
| 366 pM | 51.8% | 231 pM | 9.68 relative fluorescence intensity | 1090 pM | 17300 MFI |  | A12-Fc (Fc fusion, also called Ab12) EVQVVESGGGLAQPGGSLRLSCAASGFTFSNYGMKWVRQAPGKGPEWVSTILSQGGSTYYADSVKGRFTISRDNAKNTLYLQMNSLKPEDTALYYCLRVDWSDYSPRGQGTQVTVSA[gap - human IgG1 Fc with changes] |
| 529 pM | 84.2% | 556 pM | 17.3 relative fluorescence intensity | 1120 pM | 16700 MFI | 243 pM | A297-Fc (Fc fusion, also called Ab297) QVQLVESGGGMVEPGGSLRLSCAASGFTFSRYGMKWVRQAPGKGPEWVSTINSHGDTTYYADSVKGRFTISRDNAQNTVYLQMNSLKPEDTALYYCLRIDYSDYSSRGQGTQVTVSS[gap - human IgG1 Fc with changes] |
